Assay results taken from article PMC4336329 (PLoS ONE, 2015).
Out of some 310,000 compounds screened, about 2,200 (0.71%) showed an effect of 50% or more. Effects have a minus sign here. The list shows a part of the results.

What follows are compounds tested against human ether-à-go-go-related gene (hERG) potassium channel (human, UniProt Q12809) (assay: primary screen, population patch clamp on CHO cells stably expressing hERG).
Sequence of human ether-à-go-go-related gene (hERG) potassium channel (Q12809 whole entry, looked up): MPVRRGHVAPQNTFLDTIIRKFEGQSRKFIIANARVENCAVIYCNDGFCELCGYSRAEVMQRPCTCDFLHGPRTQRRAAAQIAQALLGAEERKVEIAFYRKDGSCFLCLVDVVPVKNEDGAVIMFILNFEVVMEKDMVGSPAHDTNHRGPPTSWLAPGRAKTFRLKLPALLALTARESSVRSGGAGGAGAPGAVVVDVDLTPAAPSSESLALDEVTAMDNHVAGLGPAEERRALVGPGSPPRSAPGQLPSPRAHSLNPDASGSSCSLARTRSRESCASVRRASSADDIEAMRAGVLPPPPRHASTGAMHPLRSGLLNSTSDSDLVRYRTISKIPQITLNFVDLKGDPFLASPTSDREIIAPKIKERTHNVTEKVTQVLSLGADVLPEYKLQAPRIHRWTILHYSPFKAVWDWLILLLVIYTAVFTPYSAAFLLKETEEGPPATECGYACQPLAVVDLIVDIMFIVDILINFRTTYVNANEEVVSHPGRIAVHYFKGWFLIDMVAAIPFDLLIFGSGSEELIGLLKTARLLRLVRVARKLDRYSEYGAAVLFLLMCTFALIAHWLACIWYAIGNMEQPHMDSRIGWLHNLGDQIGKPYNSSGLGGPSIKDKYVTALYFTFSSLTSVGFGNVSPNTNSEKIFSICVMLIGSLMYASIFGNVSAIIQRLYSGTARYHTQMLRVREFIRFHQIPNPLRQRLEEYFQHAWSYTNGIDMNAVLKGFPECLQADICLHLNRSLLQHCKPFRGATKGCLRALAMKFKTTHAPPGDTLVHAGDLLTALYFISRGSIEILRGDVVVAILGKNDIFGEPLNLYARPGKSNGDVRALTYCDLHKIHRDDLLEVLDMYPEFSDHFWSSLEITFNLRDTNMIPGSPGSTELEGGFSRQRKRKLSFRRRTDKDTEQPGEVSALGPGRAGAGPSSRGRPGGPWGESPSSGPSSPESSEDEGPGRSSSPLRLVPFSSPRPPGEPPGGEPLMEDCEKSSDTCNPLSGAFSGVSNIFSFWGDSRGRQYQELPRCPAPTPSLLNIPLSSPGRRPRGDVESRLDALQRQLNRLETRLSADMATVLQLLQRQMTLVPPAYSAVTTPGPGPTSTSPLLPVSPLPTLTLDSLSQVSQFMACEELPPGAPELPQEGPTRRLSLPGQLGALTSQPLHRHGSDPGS

| Compound | hERG current change (%, negative = inhibition) at 1uM |
| --- | --- |
| O=[N+]([O-])c1cc([N+](=O)[O-])c2c(=Nc3ccccc3)n(-c3ccccc3)n(O)c2c1 | 5.58% |
| CCCCCn1c(=O)c(C(=O)Nc2ccccc2Cl)c(O)c2ccccc21 | 15.3% |
| COc1ccc2cc(C(=O)C3CCCN(C(=O)c4csnn4)C3)ccc2c1 (stereo not drawn) | 3.88% |
| CN(C)S(=O)(=O)c1ccc(C(=O)NCC[N+]2(C)CCCCCC2)o1.[I-] | 14.1% |
| CCCN(CCC)CCNC(=O)c1cc2c(-c3ccc(Cl)cc3)nn(C)c2s1 | 6.94% |
| CCSc1nnc(NC(=O)CSc2nccn2-c2cccc(C)c2)s1 | 7.31% |
| CN(Cc1ccccc1)C(=O)c1nc2ccccn2c1CN1CCC(N2CCOCC2)CC1 | 3.72% |
| CCOC(=O)c1ccc(Oc2nc(OC)cc(OC)n2)cc1 | 7.81% |
| Cc1cc(C)c2oc(C(=O)Nc3ccc(S(=O)(=O)Nc4nccc(C)n4)cc3)cc(=O)c2c1 | 14.2% |
| COC(=O)c1cc(S(=O)(=O)N2CCOCC2)ccc1Sc1ccccc1N | -2.6% |
| Cc1cc2oc(=O)c(CC(=O)NCCCN(C)C)c(C)c2c2occ(C(C)(C)C)c12 | -49.9% |
| O=C(CCC(=O)NNC(=O)c1ccc([N+](=O)[O-])cc1)NCc1ccccc1 | 13.9% |
| COc1ccc(C(=O)OCC(=O)NCC2CCCO2)cc1 (stereo not drawn) | 10.1% |
| CN1C(=O)C(O)(CC(=O)c2ccccc2O)c2cc(Br)ccc21 (stereo not drawn) | 9.62% |
| COC(=O)C1(C)CC1(c1ccccc1)c1ccccc1 (stereo not drawn) | -0.496% |
| COc1ccc(Br)cc1C1CC(=O)N2CN(Cc3ccccc3)CSC2=C1C#N (stereo not drawn) | 9.97% |
| O=C1CN(C(=O)COC(=O)c2ccc([N+](=O)[O-])o2)c2ccccc2N1 | 7.52% |
| CCn1cc(C(=O)Nc2cccc(C)c2)c(=O)c2ccc(C)nc21 | 12.6% |
| CSc1nnc(C(C)(C)C)c(=O)n1/N=C/c1ccc(C(C)C)cc1 | 16.7% |
| COCCn1c(=O)[nH]c2cc(C(=O)Nc3cc(OC)c(OC)c(OC)c3)ccc2c1=O | 14.7% |
| Cc1[nH]oc(=O)c1N=Nc1c(Cl)cccc1Cl | 3.8% |
| Cc1cc(C)cc(NC(=O)CCNC(=O)N2C[C@H]3C[C@@H](C2)c2cccc(=O)n2C3)c1 | 11.7% |

| Compound | hERG current change (%, negative = inhibition) at 1uM |
| --- | --- |
| COC(=O)c1cn(CC(=O)NC2CCCCCC2)c2ccccc12 | 4.24% |
| CCCSc1ccc([C@@H]2[C@H]3C(=O)N(CC)C(=O)[C@H]3[C@]3(C(=O)OC)CCCCN23)cc1.O=C(O)C(F)(F)F | 13.6% |
| N#Cc1c(-c2ccco2)cc(-c2ccc(F)cc2)nc1N | 3.24% |
| CC(C)CNC(=O)c1cccc(NC(=O)CSc2ccc(Cl)cc2)c1 | 6.75% |
| N#Cc1ccsc1NC(=O)CCc1ccccc1 | 9.06% |
| COc1ccc(CNC(=O)C/C(C)=N/NC(=O)COc2ccccc2)cc1 | 11.4% |
| COc1ccc(-c2cc(C(=O)Nc3sc4c(c3C#N)CCCC4)c3ccccc3n2)cc1OC | 12.2% |
| Cc1cc(C)nc(/N=C(\N)Nc2ccc3c(c2)OCCO3)n1 | 13.3% |
| COc1ccccc1NC(=O)COc1ccc(Br)cc1CNC1CCCC1 | 0.559% |
| Cc1cccc(NC(=O)c2cccc(OC(=S)N3CCOCC3)c2)c1C | 10.7% |
| CC1(C)CC(=O)C2=C(C1)c1c(ccc3ccccc13)NC2c1ccc(Br)o1 (stereo not drawn) | 20.3% |
| C#CCn1c2ccccc2c2nc3ccccc3nc21 | 14.4% |
| O=C(c1cc(C(=O)NCCc2ccccc2)c(=O)n(CCc2ccccc2)c1)c1cc(Cl)ccc1O | 6.68% |
| O=c1c2ccccc2nnn1COc1cccc(Cl)c1 | 8.69% |
| COc1ccc(C(=O)CSc2nc(C)cc(C)n2)cc1[N+](=O)[O-] | 10.7% |
| CCOC(=O)C(=CNc1cc(C)nn1C(C)(C)C)C(=O)OCC | 0.0263% |
| COc1ccc(NC(=O)NNC(=O)c2ccc3ccccc3c2O)c(OC)c1 | 0.0914% |
| COc1ccccc1C1/C(=C(/O)c2ccc(C)cc2)C(=O)C(=O)N1Cc1ccco1 (stereo not drawn) | 9.23% |
| Cc1ccc(N2C(=O)CC(Nc3ccc(Cl)c(S(=O)(=O)N(C)C)c3)C2=O)c(C)c1 (stereo not drawn) | 6.91% |
| CN(C)c1cccc(N(C)C)c1CNC(=O)NC(=O)c1c(F)cccc1F | 13% |
| Cc1cc(S(=O)(=O)Nc2ccccc2C(=O)O)ccc1Cl | 22.7% |
| CCOC(=O)c1sc(NC(=O)C(C)Sc2nnc(N)s2)nc1C (stereo not drawn) | 9.77% |

| Compound | hERG current change (%, negative = inhibition) at 1uM |
| --- | --- |
| Clc1cccc(-c2csc(Nc3cccnc3)n2)c1 | 10.7% |
| O=C(c1ccccc1Br)N1CCN(Cc2ccc3c(c2)OCO3)CC1 | 14% |
| COC(=O)CCN(C(=O)c1ccc(Cl)c([N+](=O)[O-])c1)c1ccccn1 | 3.44% |
| CC(C)(C)c1cc(N)n2nc(C(C)(C)C)cc2n1 | 7.38% |
| O=S(=O)(Nc1ccc2c(c1)nc1n2CCOC1)c1ccccc1 | 8.78% |
| COc1ccc(N(CC(=O)Nc2cc(Cl)ccc2OC)S(=O)(=O)c2c(C)[nH]c(=O)[nH]c2=O)cc1 | 15.7% |
| CCCCC(=O)Nc1cccc(-c2nnc(-c3ccccc3)o2)c1 | 4.6% |
| COc1ccc(C(C(=O)Nc2ccc(F)cc2)N(C(=O)Cn2nnc3ccccc32)C2CC2)cc1 (stereo not drawn) | 4.31% |
| O=S1(=O)CCN2N=C(C34CC5CC(CC(C5)C3)C4)SC2=N1 | 13.1% |
| Cc1ccc(NC(=O)Cn2cc(C(F)(F)F)cc(Cl)c2=O)cc1Cl | 14.3% |
| COc1ccc(/C=C2\SC(=S)N(NC(=O)c3ccncc3)C2=O)cc1OC | 3.91% |
| CC(=O)Nc1ccc(NC(=O)C2CC(=O)N(c3cccc(C)c3C)C2)cc1 (stereo not drawn) | 8.29% |
| Cc1ccc(S(=O)(=O)NCC(=O)N(CC(=O)NCC2CCCO2)c2ccc(Cl)cc2)cc1 (stereo not drawn) | 1.1% |
| CCOP(=S)(OCC)Oc1cc(C)oc(=O)c1Cl | 17.9% |
| C=CCNc1nc(N)c(C(=O)c2ccc3c(c2)OCO3)s1 | -1.23% |
| O=C(O)CN1C(=O)C(=O)N(Cc2cccc(F)c2)C1=O | 14.5% |
| COc1ccc(NC(=O)N2CCC(c3ccccc3)C2)c(OC)c1 (stereo not drawn) | 14.9% |
| CCOC(=O)c1c(C)nc(-c2ccccc2)nc1NC(=O)C(C)C | 10.6% |
| Cc1nc(=O)c(-c2ccccc2)c(C)n1CCO | 16.7% |
| NS(=O)(=O)c1ccc(NC(=O)CN2CCCCC2)cc1 | 5.28% |
| COc1ccc(CSc2nnc(-c3ccncc3)n2C)cc1F | 20% |
| O=C(O)CCc1ccc(-c2cccs2)n1NC(=O)c1ccc(O)cc1 | 8.83% |

| Compound | hERG current change (%, negative = inhibition) at 1uM |
| --- | --- |
| O=S(=O)(NC1CC1)c1ccc(Cl)cc1F | 13.1% |
| CC1C(=O)NN=C1C(=O)N/N=C/c1ccco1 (stereo not drawn) | 15.5% |
| C=CCN1C(=O)N(/C=C/C)c2cccc3cccc1c23 | 11.6% |
| CCOC(=O)C1C(=O)OC(C)(C)C1C(CC)C(=O)c1c(C)cc(C)cc1C (stereo not drawn) | 13% |
| O=c1c(-c2c(O)cc(O)c3c(=O)cc(-c4ccc(O)cc4)oc23)c(-c2ccc(O)cc2)oc2cc(O)cc(O)c12 | 7.32% |
| CCOC(=O)[C@@H]1C(c2c(OC)cc(OC)cc2OC)=NO[C@@H]1C(=O)OCC | 2.23% |
| Cc1ccc(C)c(OCC(=O)NNC(=O)C2CC2)c1 | 3.93% |
| CCN(CC)C(=O)Oc1nnc(SC(C)C)n1-c1ccc(Cl)c(Cl)c1 | 11.3% |
| S=C(Nc1ccc(Oc2ccccc2)cc1)Nc1cccnc1 | 6.92% |
| CC1(C(=O)N2CCN(Cc3ccccc3Cl)CC2)CC1(Cl)Cl (stereo not drawn) | 9.86% |
| COc1ccc(NC(=S)N2CCC(NC(=O)c3ccc(F)cc3)CC2)cc1 | 3.93% |
| COc1cccc(NCc2ccc([N+](=O)[O-])s2)c1 | -0.835% |
| CN(C)c1ccnc(Oc2ccc(F)cc2)c1C#N | 7.63% |
| CC(C(=O)NCCSCc1cccc(Cl)c1)N(c1ccccc1)S(C)(=O)=O (stereo not drawn) | 3.77% |
| Cn1c(=O)oc2cc(S(=O)(=O)N3CCCC(C(=O)Nc4nccs4)C3)ccc21 (stereo not drawn) | -8.58% |
| O=C(NC1CCS(=O)(=O)C1)c1cccs1 (stereo not drawn) | 24.2% |
| Cc1cc([N+](=O)[O-])nn1CCCC(=O)Nc1cc(Oc2ccc(F)cc2)cc([N+](=O)[O-])c1 | 4.95% |
| O=C1CNC(=S)N1CCCn1ccnc1 | 9.37% |
| O=C(CN1C(=O)NC(Cc2c[nH]c3ccccc23)C1=O)NCCc1ccc(F)cc1 (stereo not drawn) | 11.7% |
| Nc1cc[n+](CC(=O)Nc2ccccc2)cc1.[Cl-] | 17.1% |
| Cl.O=C(NN1CCN(Cc2ccccc2Cl)CC1)c1ccc(Cl)cc1 | 8.07% |
